From the RNAGym collection of RNA variant scans (doi:10.7554/elife.90254)
The source gives no read counts; variants with many changes may rest on few reads.

B1: LINE1-mini (parent)
chain: GGCAGAGCUCAACACAGCGUGGCAAAGUGGCUGUGGCUAGACUGCC

Variants of: B1
Assay: self-cleavage, relative activity (ratio to wild type); higher = more cleavage; in vitro, sequencing; the parent is a self-cleaving ribozyme

**Q.** For GGAAGAGAUCAACAUAGCGUGGCAAAGUGGAUGUGGCUAGACUGCC [C3A C8A C15U C31A], which self-cleavage is on record?
**A.** Its self-cleavage is 0.74.

**Q.** Which self-cleavage does the source give for GGAAGAGAUCAACACAGCCUGGCAAAGUGGCUGUGGCUAGACUGCC [C3A C8A G19C] here?
**A.** The self-cleavage was 0.25.

**Q.** Which self-cleavage does the source give for GGAAGAGAUCAACACAGCGUGGCAAAGUGGCUGUUGCUAGACUGCC [C3A C8A G35U] here?
**A.** The self-cleavage was 0.29.

**Q.** With GGAAGAGACCAACACAGCGUGGCAAAGUGGCUGUGGCUAGACUGCC [C3A C8A U9C] as the variant, how does the self-cleavage read?
**A.** The self-cleavage was 0.15.

**Q.** Which self-cleavage does the source give for GGAAGAGAUCAACACAGCGAGGCAAAGUGGCUGUGGCUAGACUACC [C3A C8A U20A G44A] here?
**A.** Its self-cleavage is 0.21.

**Q.** With GGAAGAGAUCAACACAGCGUGGCAAAGGGGCUGUGGCUAGACUGCC [C3A C8A U28G] as the variant, how does the self-cleavage read?
**A.** The self-cleavage was 1.06.

**Q.** For GGAAGAGAUCAACACAGCGUGGCAAAGUGGCUGAGGCUAGACUGCC [C3A C8A U34A], which self-cleavage is on record?
**A.** Its self-cleavage is 0.35.

**Q.** For GGAAGAGGUCACCAAAGCGUGGCAAAGUGGCUGUGGCUAGACUGCC [C3A C8G A12C C15A], which self-cleavage is on record?
**A.** The self-cleavage was 0.03.

**Q.** With GGAAGAGGUCAAAACAGCGUGGCAAAGUGGCUGUGGCUACACUGCC [C3A C8G C13A G40C] as the variant, how does the self-cleavage read?
**A.** Its self-cleavage is 0.02.

**Q.** For GGAAGAGGUCAACACAGCGUGACAAAGUGGCUGUGGCAAGACUGCC [C3A C8G G22A U38A], which self-cleavage is on record?
**A.** The self-cleavage was 0.01.

**Q.** With GGAAGAGGUCAACACAGCGUGCCAGAGUGGCUGUGGCAAGACUGCC [C3A C8G G22C A25G U38A] as the variant, how does the self-cleavage read?
**A.** The self-cleavage was 0.02.

**Q.** With GGAAGAGGACAACACAGCGUGGCUAAGUGGCUGUGGCGAGACUUCC [C3A C8G U9A A24U U38G G44U] as the variant, how does the self-cleavage read?
**A.** Its self-cleavage is 0.13.

**Q.** For GGAAGAGGUCAACACAGCGAGGCAAAGUGGCUGCGGCUAGACUGCC [C3A C8G U20A U34C], which self-cleavage is on record?
**A.** The self-cleavage was 0.08.

**Q.** For GGAAGAGUUCAACACAGCGUGGCCAAGUGGCUGUGGCUAGACUGAC [C3A C8U A24C C45A], which self-cleavage is on record?
**A.** Its self-cleavage is 0.11.

**Q.** With GGAAGAGUUCAACACAGCGUGGCAACGUUGCUGUUGCUAGACUACC [C3A C8U A26C G29U G35U G44A] as the variant, how does the self-cleavage read?
**A.** Its self-cleavage is 0.2.

**Q.** Which self-cleavage does the source give for GGAAGAGUUCAAUACAGCGAGGUAAAGUGGCUGUGGCUAGACUGCC [C3A C8U C13U U20A C23U] here?
**A.** The self-cleavage was 0.84.

**Q.** Which self-cleavage does the source give for GGAAGAGUUCAACACAGUGUGGCAAAGUGGCUGUGACUAUACUCCC [C3A C8U C18U G36A G40U G44C] here?
**A.** The self-cleavage was 0.21.

**Q.** Which self-cleavage does the source give for GGAAGAGUUCAACACAGCGUGGCAAAGUGGCUGUGGCUAUACUGUC [C3A C8U G40U C45U] here?
**A.** The self-cleavage was 0.37.

**Q.** For GGAAGAGCUAAACCCAGAGUGGCAAAGUGGCUGUGGCUAGACUGCC [C3A C10A A14C C18A], which self-cleavage is on record?
**A.** Its self-cleavage is 1.68.

**Q.** For GGAAGAGCUAAACUCAGCGUGGCAAAGUGGCUGUGGCUAGACUGCC [C3A C10A A14U], which self-cleavage is on record?
**A.** The self-cleavage was 0.06.

**Q.** Which self-cleavage does the source give for GGAAGAGCUAAAAACAGCGUGGCAAAGUGGCUGUGGCUAGACUGCC [C3A C10A C13A] here?
**A.** The self-cleavage was 0.04.

**Q.** Which self-cleavage does the source give for GGAAGAGCUAAAUACAGCGUGUCAAAGUGGCAGUGGAUAGACUGCC [C3A C10A C13U G22U U32A C37A] here?
**A.** Its self-cleavage is 0.08.

**Q.** For GGAAGAGCUAAACACAGCGUGGCAAAGUGGAUGUGGCUAGACUGCC [C3A C10A C31A], which self-cleavage is on record?
**A.** The self-cleavage was 0.03.

**Q.** For GGAAGAGCUAAACACAGCGUGGCAAAGUGGCAGUGGCUAAACUGCC [C3A C10A U32A G40A], which self-cleavage is on record?
**A.** The self-cleavage was 0.04.

**Q.** For GGAAGAGCUGCACACAGCGUGGCAAAGUGGCUGUGGCUAGAGUGCC [C3A C10G A11C C42G], which self-cleavage is on record?
**A.** Its self-cleavage is 0.01.

**Q.** With GGAAGAGCUGAACGCAGGGUGACAAAGUGGCUGUGGCUAGACUGCC [C3A C10G A14G C18G G22A] as the variant, how does the self-cleavage read?
**A.** The self-cleavage was 0.02.

**Q.** Which self-cleavage does the source give for GGAAGAGCUGAACGCAGCGUGGCAAAAUGGCUGUGGCUAGACUGCC [C3A C10G A14G G27A] here?
**A.** Its self-cleavage is 0.05.

**Q.** For GGAAGAGCUUAAAACAGCGUGGCAAAGUGGCUGUGGCUAGACUGCC [C3A C10U C13A], which self-cleavage is on record?
**A.** The self-cleavage was 0.44.

**Q.** Which self-cleavage does the source give for GGAAGAGCUUAACAAAGCGUGGUAAAGUGGCUGUGGCUGGACUGCC [C3A C10U C15A C23U A39G] here?
**A.** The self-cleavage was 0.06.

**Q.** Which self-cleavage does the source give for GGAAGAGCUUAACACAGCGUGGUAAAGUGGCUGAGGCUAGACUGCC [C3A C10U C23U U34A] here?
**A.** Its self-cleavage is 0.12.

**Q.** For GGAAGAGCUUAACACAGCGAGGCAAAGUGGCUGUGGCUAGACUGCA [C3A C10U U20A C46A], which self-cleavage is on record?
**A.** Its self-cleavage is 0.03.

**Q.** For GGAAGAGCUUAACACAGCGUGGCAAAGUGGCUGUGGCAAGACUGCC [C3A C10U U38A], which self-cleavage is on record?
**A.** Its self-cleavage is 0.09.

**Q.** For GGAAGAGCUCAAACCAGCGUGGCAAAGUGGCUGUGGCUAGACUGCC [C3A C13A A14C], which self-cleavage is on record?
**A.** The self-cleavage was 0.04.

**Q.** Which self-cleavage does the source give for GGAAGAGCUCAAAUCAGCGUGGUAAAGUGGCUGUGGCUAGACUGCC [C3A C13A A14U C23U] here?
**A.** The self-cleavage was 0.45.

**Q.** Which self-cleavage does the source give for GGAAGAGCUCAAAACAGCGUGGCUAAUUGGCUGUGGCUAGACUGCC [C3A C13A A24U G27U] here?
**A.** The self-cleavage was 0.14.

**Q.** Which self-cleavage does the source give for GGAAGAGCUCAAAACAGCGUGGCAAGGUGGUUGUGGCUAGACUACC [C3A C13A A26G C31U G44A] here?
**A.** Its self-cleavage is 0.55.

**Q.** Which self-cleavage does the source give for GGAAGAGCUCAAAACAGUGUGGCAAAGUGGUUGUGGCUAGACUCCC [C3A C13A C18U C31U G44C] here?
**A.** The self-cleavage was 0.07.

**Q.** Which self-cleavage does the source give for GGAAGAGCUCAAAACAGCUUGGCAAAGUGGCUGCGGCUAGAUUGCC [C3A C13A G19U U34C C42U] here?
**A.** Its self-cleavage is 0.29.

**Q.** Which self-cleavage does the source give for GGAAGAGCUCAAAACAGCGUGACAAAGUGGCUGUGGUUGGACUGCC [C3A C13A G22A C37U A39G] here?
**A.** Its self-cleavage is 0.04.

**Q.** For GGAAGAGCUCAAAACAGCGUGGCAAAGUGGCAGUGGAUACACUGCC [C3A C13A U32A C37A G40C], which self-cleavage is on record?
**A.** The self-cleavage was 0.01.

**Q.** Which self-cleavage does the source give for GGAAGAGCUCAAGACAGAGUGGCUAACUGGCUUUGGCUAGACUGCC [C3A C13G C18A A24U G27C G33U] here?
**A.** The self-cleavage was 0.04.

**Q.** For GGAAGAGCUCAAGACAGCGUGUCAACGUGGCUGUGGCUAGACUGCC [C3A C13G G22U A26C], which self-cleavage is on record?
**A.** Its self-cleavage is 1.11.

**Q.** With GGAAGAGCUCAAUACAGCGUGGCACAGUGGCUGUGGCUAGCCUCCC [C3A C13U A25C A41C G44C] as the variant, how does the self-cleavage read?
**A.** Its self-cleavage is 0.07.

**Q.** With GGAAGAGCUCAAUAUAGCGUGGCAAAGUGGCUGUAGCUAGACAGCC [C3A C13U C15U G35A U43A] as the variant, how does the self-cleavage read?
**A.** Its self-cleavage is 0.12.

**Q.** Which self-cleavage does the source give for GGAAGAGCUCAAUACAGCGUGGCAAAGCGGCUGUGACUCGACUGCC [C3A C13U U28C G36A A39C] here?
**A.** Its self-cleavage is 0.27.

**Q.** With GGAAGAGCUCAACAAAGCGUGGCAUAGUGGCUGUGGCUAGACUGCC [C3A C15A A25U] as the variant, how does the self-cleavage read?
**A.** The self-cleavage was 0.11.

**Q.** For GGAAGAGCUCAACAAAGCGUGGCAACGUGGAUGUGGCUAGACUGCC [C3A C15A A26C C31A], which self-cleavage is on record?
**A.** The self-cleavage was 0.32.

**Q.** For GGAAGAGCUCAACAAAUCGUGGCAAAUUGGCUGUGGCUAGACUGCC [C3A C15A G17U G27U], which self-cleavage is on record?
**A.** Its self-cleavage is 1.33.

**Q.** With GGAAGAGCUCAACAAAGCGUGGCAAAGUGACUGUGGCUAGACUGCC [C3A C15A G30A] as the variant, how does the self-cleavage read?
**A.** The self-cleavage was 0.15.

**Q.** Which self-cleavage does the source give for GGAAGAGCUCAACAGCGCGUGGCAAAGUGGCUGUGGCUAGACGGCC [C3A C15G A16C U43G] here?
**A.** Its self-cleavage is 0.01.

**Q.** With GGAAGAGCUCAACAGAGCGUGGCAUAAUGGCUGUGGCUAGACUGCC [C3A C15G A25U G27A] as the variant, how does the self-cleavage read?
**A.** The self-cleavage was 0.12.

**Q.** For GGAAGAGCUCAACAGAUCGUGGCAAAGUGGCUGUGGCUAGACUACU [C3A C15G G17U G44A C46U], which self-cleavage is on record?
**A.** Its self-cleavage is 0.04.

**Q.** With GGAAGAGCUCAACAGAGCGUGGCAAAGUGGCAGUCGCUAUACUGCC [C3A C15G U32A G35C G40U] as the variant, how does the self-cleavage read?
**A.** Its self-cleavage is 0.15.

**Q.** With GGAAGAGCUCAACAUGUCGUGGCACAGUGGCUGUGGCUAGACUGCC [C3A C15U A16G G17U A25C] as the variant, how does the self-cleavage read?
**A.** Its self-cleavage is 0.13.

**Q.** Which self-cleavage does the source give for GGAAGAGCUCAACAUAGCGUGGCAAAGUGGCUGUGGCUAGACUGUC [C3A C15U C45U] here?
**A.** The self-cleavage was 0.88.

**Q.** For GGAAGAGCUCAACAUAUCGUAGCAAAGUGGCUGUGUCUAGACUGCC [C3A C15U G17U G21A G36U], which self-cleavage is on record?
**A.** Its self-cleavage is 0.17.
